# Assay results published in PubChem BioAssay (Tox21).
# Where “and” joins values, the source holds several entries; their conditions need not be identical. Identical values can stand only once. Calls of active or inactive are those of the source. Entries that show only a call come without a potency. Unless noted, calls follow the shape of the dose curve; as a rule, active = well fitted curve in the direction sought with a large enough effect in the repeat runs; inconclusive = weak or mixed curves; inactive = no such curve, though single readings can be large; an effect the other way counts as inactive or inconclusive.
# What was measured:
# [1] = qHTS assay to identify small molecule antagonists of the estrogen receptor alpha (ER-alpha) signaling pathway using the BG1 cell line - cell viability counter screen (AID 743081); details: BG1Luc4E2 viability, CellTiter-Fluor, 22 h; activity change, negative = cytotoxicity: at 70.3 µM (top of the series);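 also: compound given together with 17beta-estradiol as the ER stimulus; potency is read from the fitted curve at half-maximal effect; nearly all actives have a fitted effect of over 45% in size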
# [2] = biological target: Bile acid receptor (Homo sapiens) (UniProt Q96RI1); assay: qHTS assay to identify small molecule agonists of the farnesoid-X-receptor (FXR) signaling pathway (AID 743220; active = well fitted activation curve with a large enough effect in the signal ratio in the repeat runs, not every such curve was filed as active; inconclusive = weak or mixed curves, or effect the other way; the % refers to the signal ratio); details: HEK293T FXR-UAS-bla, beta-lactamase FRET ratio, 16 h; activation: at 62.6 µM (top of the series)
# Outline: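 Beta-lactamase reporter under UAS control in GeneBLAzer FXR HEK 293T cells (5000/well) measured with LiveBLAzer FRET substrate after 2 h at room temperature. Compound exposure lasted 16 h at 37C.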
# [3] = biological target: Aromatase (Homo sapiens) (UniProt P11511); assay: qHTS assay to identify aromatase inhibitors (AID 743083); also: nearly all actives have a fitted effect of over 55% in size; also: potency is read from the fitted curve at half-maximal effect
# [4] = biological target: Acetylcholinesterase (Homo sapiens) (UniProt P22303); assay: Acetylcholinesterase (AChE) small molecule antagonists: enzyme-based qHTS assay (AID 1347397; calls by dose curve; also: potency is read from the fitted curve at half-maximal effect; nearly all actives have a fitted effect of over 55% in size); details: Potency: AChE enzyme activity inhibition; outcome: AChE enzyme activity inhibition
# Outline: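 Recombinant human AChE (50 mU/mL) preincubated with compound 30 min at room temperature; acetylthiocholine plus DTNB then added, and thiocholine formation read colorimetrically after 10 min at room temperature. DMSO served as vehicle control.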
# [5] = qHTS RealTime-Glo MT Cell Viability Assay in HepG2 cells - 0 hour (AID 1224889); also: potency is read from the fitted curve at half-maximal effect; nearly all actives have a fitted effect of over 50% in size
# Outline: (§1)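 HepG2 cells were seeded at 600 cells/well together with NanoLuc luciferase and a cell-permeant prosubstrate, preincubated 5 h at 37 C/5% CO2, then pin-dosed with compounds in DMSO. Nonlytic luminescence from viable cells was read at each time point.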
# [6] = biological target: Estrogen receptor (Homo sapiens) (UniProt P03372); assay: qHTS assay to identify small molecule antagonists of the estrogen receptor alpha (ER-alpha) signaling pathway using the BG1 cell line in the presence of 0.1 nM 17-beta-estradiol (AID 1259244); also: nearly all actives have a fitted effect of over 50% in size; also: potency is read from the fitted curve at half-maximal effect
# Outline: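 Quantitative high-throughput screen in VM7Luc4E2 cells: compound plus 0.1 nM E2 (final), 22 h, 37C, 5% CO2; ONE-Glo added, 30 min room temperature, luminescence measured.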
# [7] = biological target: Progesterone receptor (Homo sapiens) (UniProt P06401); assay: qHTS assay to identify small molecule agonists of the progesterone receptor (PR) signaling pathway (AID 1346784; calls by dose curve; also: nearly all actives have a fitted effect of over 30% in size; also: potency is read from the fitted curve at half-maximal effect); details: PR-UAS-bla HEK293T, beta-lactamase FRET ratio, 16 h; activation: at 92.4 µM (top of the series) unless noted
# Outline: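 PR-UAS-bla HEK 293T cells carrying a UAS-driven beta-lactamase reporter were seeded in medium with 2% charcoal-stripped FBS, preincubated 6 hr at 37C, then exposed to compounds in DMSO for 16 hr; agonism was read by LiveBLAzer B/G FRET fluorescence.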
# [8] = A CellTox Green Cytotoxicity Assay to monitor cytotoxicity in HEK293 cells - 24 hour (AID 1224875); also: nearly all actives have a fitted effect of over 45% in size; also: potency is read from the fitted curve at half-maximal effect
# Outline: (§2)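 Each value comes from one timepoint of a single continuous run in which HEK293 cells with CellTox Green were exposed to compound for up to 40 h at 37 C, dye fluorescence rising with cell death.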
# [9] = qHTS assay for small molecule activators of the heat shock response signaling pathway (AID 743210; active = well fitted activation curve with a large enough effect in the signal ratio in the repeat runs, with a control signal flat, not every such curve was filed as active; inconclusive = weak or mixed curves; the % refers to the signal ratio; also: potency is read from the fitted curve at half-maximal effect); details: HeLa HSE-bla reporter, beta-lactamase ratio, 5 h; activation: at 62.6 µM (top of the series) unless noted
# Outline: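 HSE-bla HeLa cells (beta-lactamase reporter under heat shock response elements), plated overnight, then exposed to compounds 5 h at 37 C; LiveBLAzer B/G FRET substrate added, 2.5 h at room temperature, fluorescence intensity read.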
# [10] = qHTS assay to identify small molecule antagonists of the retinoid acid receptor (RAR) signaling pathway - cell viability counter screen (AID 1159551); also: nearly all actives have a fitted effect of over 35% in size; also: potency is read from the fitted curve at half-maximal effect
# Outline: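 Following overnight attachment, C3RL4 reporter cells received DMSO-dissolved compounds and then retinol (1 uM final). Six hours later at 37 C, ATP content was measured by CellTiter-Glo luminescence.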
# [11] = qHTS RealTime-Glo MT Cell Viability Assay in HEK293 cells - 0 hour (AID 1224880); also: potency is read from the fitted curve at half-maximal effect; nearly all actives have a fitted effect of over 45% in size
# Outline: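 qHTS format; HEK293 cells with NanoLuc/prosubstrate reagent, 37 C/5% CO2 for 5 h pre-dosing; compounds 23 nL in DMSO; luminescence at each time point reflects viable cells.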
# [12] = biological target: Estrogen receptor (Homo sapiens) (UniProt P03372); assay: qHTS assay to identify small molecule agonists of the estrogen receptor alpha (ER-alpha) signaling pathway (AID 743075; calls by dose curve;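 also: HEK293 GripTite cells with ER-alpha and UAS-driven beta-lactamase reporter; potency is read from the fitted curve at half-maximal effect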); details: HEK293 ER-alpha-UAS-bla, beta-lactamase FRET ratio, 18 h; activation: at 70.1 µM (top of the series) unless noted
# [13] = biological target: Bile acid receptor (Homo sapiens) (UniProt Q96RI1); assay: qHTS assay to identify small molecule antagonists of the farnesoid-X-receptor (FXR) signaling pathway (AID 743217; active = well fitted inhibition curve with a large enough effect in the signal ratio in the repeat runs, not every such curve was filed as active; inconclusive = weak or mixed curves, or effect the other way; inactive = no such curve, though single readings can be large or run the other way; the % refers to the signal ratio; also: potency is read from the fitted curve at half-maximal effect); details: HEK293T FXR-UAS-bla, beta-lactamase ratio, CDCA-stimulated, 16 h; activity change, negative = inhibition: at 62.6 µM (top of the series) unless noted
# Outline: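 Beta-lactamase reporter under UAS control in HEK 293T cells; compound exposure 16 h at 37 °C in the presence of chenodeoxycholic acid (50 uM final); signal from B/G FRET substrate after 2 h at room temperature.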
# [14] = qHTS assay to identify small molecule that activate the aryl hydrocarbon receptor (AhR) signaling pathway - cell viability counter screen (AID 743086); also: nearly all actives have a fitted effect of over 45% in size; also: potency is read from the fitted curve at half-maximal effect;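 as to viability change, negative = cytotoxic: HepG2 liver cells carrying the AhR DRE luciferase reporter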
# Outline: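 HepG2-AhR-luc (HG2L7.5c1) cells, 4000/well, treated 24 h at 37 C with compound; viability measured as CellTiter-Fluor fluorescence after 30 min in the same wells as the luciferase read.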
# [15] = qHTS assay to identify small molecule agonists of the hypoxia (HIF-1) signaling pathway (AID 1224846; active = well fitted activation curve with a large enough effect in the signal ratio in the repeat runs, not every such curve was filed as active; inconclusive = weak or mixed curves; the % refers to the signal ratio; also: potency is read from the fitted curve at half-maximal effect); details: HRE-bla ME-180 cells, beta-lactamase ratio, 17 h; activation: at 76.8 µM (top of the series) unless noted
# Outline: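 Measured by blue/green FRET after loading CCF4-AM: beta-lactamase expressed from a hypoxia response element in ME-180 cells. Test agents were delivered in DMSO and left 17 hrs; cells had been plated 5 hrs earlier in low-serum (0.5% dialyzed FBS) medium.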
# [16] = qHTS RealTime-Glo MT Cell Viability Assay in HepG2 cells - 8 hour (AID 1224873); also: potency is read from the fitted curve at half-maximal effect; nearly all actives have a fitted effect of over 55% in size
# Outline: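 HepG2 cells (600/well) mixed with RealTime-Glo MT reagent, settled 5 h at 37 C/5% CO2 before compound addition. Nonlytic NanoLuc luminescence from viable-cell prosubstrate reduction read repeatedly during 40 h treatment at 37 C.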
# [17] = qHTS RealTime-Glo MT Cell Viability Assay in HepG2 cells - 32 hour (AID 1224877); also: nearly all actives have a fitted effect of over 55% in size; also: potency is read from the fitted curve at half-maximal effect
# Outline: as §1
# [18] = A CellTox Green Cytotoxicity Assay to monitor cytotoxicity in HEK293 cells - 16 hour (AID 1224888); also: potency is read from the fitted curve at half-maximal effect; nearly all actives have a fitted effect of over 35% in size
# Outline: as §2
# [19] = qHTS assay to identify small molecule antagonists of the androgen receptor (AR) signaling pathway using the MDA cell line - cell viability counter screen (AID 743041); details: MDA-kb2 viability, CellTiter-Fluor, 16 h, cells co-treated with R1881 androgen agonist; viability change, negative = cytotoxic: at 70.3 µM (top of the series)
# Outline: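 MDA-kb2 AR-luc cells (MMTV-luciferase, AR/GR responsive) treated with compounds plus R1881 agonist for 16 h at 37C. CellTiter-Fluor added at 15.5 h; fluorescence read after 30 min in the same wells.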
# Tags tell the direction and shape of the fitted curve or compound fluorescence and quenching.
# UniProt Q96RI1, sequence (Q96RI1 whole entry, looked up): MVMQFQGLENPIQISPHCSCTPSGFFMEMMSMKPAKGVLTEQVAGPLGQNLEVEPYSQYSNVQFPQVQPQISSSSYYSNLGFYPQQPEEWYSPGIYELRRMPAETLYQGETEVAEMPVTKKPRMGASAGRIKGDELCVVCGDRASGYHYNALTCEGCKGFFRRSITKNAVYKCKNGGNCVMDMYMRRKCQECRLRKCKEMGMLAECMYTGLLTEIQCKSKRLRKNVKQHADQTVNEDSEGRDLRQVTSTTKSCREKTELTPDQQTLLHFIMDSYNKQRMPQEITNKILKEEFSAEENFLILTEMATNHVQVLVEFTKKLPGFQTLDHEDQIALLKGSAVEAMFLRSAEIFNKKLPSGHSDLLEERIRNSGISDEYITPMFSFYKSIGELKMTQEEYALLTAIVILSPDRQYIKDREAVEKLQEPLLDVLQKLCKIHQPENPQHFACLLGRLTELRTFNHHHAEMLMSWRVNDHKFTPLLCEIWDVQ
# UniProt P03372, sequence (P03372 whole entry, looked up): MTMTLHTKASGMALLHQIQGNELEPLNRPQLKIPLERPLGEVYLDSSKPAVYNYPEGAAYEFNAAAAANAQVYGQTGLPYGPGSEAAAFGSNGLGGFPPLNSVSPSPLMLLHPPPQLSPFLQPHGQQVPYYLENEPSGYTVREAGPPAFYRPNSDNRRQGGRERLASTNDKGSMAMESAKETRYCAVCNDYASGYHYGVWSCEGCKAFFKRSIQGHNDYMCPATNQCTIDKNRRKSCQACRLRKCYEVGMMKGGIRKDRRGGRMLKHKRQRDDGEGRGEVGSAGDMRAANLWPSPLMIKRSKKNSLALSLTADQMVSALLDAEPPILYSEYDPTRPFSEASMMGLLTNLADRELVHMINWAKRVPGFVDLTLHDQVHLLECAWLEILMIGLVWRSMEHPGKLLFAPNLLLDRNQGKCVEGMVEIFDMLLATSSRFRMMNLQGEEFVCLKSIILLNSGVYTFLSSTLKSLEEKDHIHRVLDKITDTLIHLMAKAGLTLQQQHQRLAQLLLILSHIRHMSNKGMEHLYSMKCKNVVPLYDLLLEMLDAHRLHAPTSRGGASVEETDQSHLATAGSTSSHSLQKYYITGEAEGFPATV
# UniProt P11511, sequence (P11511 whole entry, looked up): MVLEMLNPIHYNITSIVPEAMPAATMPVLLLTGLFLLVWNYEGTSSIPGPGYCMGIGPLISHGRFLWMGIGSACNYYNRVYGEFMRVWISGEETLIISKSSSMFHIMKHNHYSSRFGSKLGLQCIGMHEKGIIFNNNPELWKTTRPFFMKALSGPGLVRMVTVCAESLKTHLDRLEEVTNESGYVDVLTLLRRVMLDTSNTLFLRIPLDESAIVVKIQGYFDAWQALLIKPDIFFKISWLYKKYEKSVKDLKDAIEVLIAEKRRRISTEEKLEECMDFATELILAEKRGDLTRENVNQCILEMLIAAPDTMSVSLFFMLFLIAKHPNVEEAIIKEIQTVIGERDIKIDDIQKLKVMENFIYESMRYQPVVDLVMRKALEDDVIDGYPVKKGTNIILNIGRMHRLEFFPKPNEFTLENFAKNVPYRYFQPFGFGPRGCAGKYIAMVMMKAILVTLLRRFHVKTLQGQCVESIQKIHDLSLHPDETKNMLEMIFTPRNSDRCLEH
# UniProt P06401, sequence (P06401 whole entry, looked up): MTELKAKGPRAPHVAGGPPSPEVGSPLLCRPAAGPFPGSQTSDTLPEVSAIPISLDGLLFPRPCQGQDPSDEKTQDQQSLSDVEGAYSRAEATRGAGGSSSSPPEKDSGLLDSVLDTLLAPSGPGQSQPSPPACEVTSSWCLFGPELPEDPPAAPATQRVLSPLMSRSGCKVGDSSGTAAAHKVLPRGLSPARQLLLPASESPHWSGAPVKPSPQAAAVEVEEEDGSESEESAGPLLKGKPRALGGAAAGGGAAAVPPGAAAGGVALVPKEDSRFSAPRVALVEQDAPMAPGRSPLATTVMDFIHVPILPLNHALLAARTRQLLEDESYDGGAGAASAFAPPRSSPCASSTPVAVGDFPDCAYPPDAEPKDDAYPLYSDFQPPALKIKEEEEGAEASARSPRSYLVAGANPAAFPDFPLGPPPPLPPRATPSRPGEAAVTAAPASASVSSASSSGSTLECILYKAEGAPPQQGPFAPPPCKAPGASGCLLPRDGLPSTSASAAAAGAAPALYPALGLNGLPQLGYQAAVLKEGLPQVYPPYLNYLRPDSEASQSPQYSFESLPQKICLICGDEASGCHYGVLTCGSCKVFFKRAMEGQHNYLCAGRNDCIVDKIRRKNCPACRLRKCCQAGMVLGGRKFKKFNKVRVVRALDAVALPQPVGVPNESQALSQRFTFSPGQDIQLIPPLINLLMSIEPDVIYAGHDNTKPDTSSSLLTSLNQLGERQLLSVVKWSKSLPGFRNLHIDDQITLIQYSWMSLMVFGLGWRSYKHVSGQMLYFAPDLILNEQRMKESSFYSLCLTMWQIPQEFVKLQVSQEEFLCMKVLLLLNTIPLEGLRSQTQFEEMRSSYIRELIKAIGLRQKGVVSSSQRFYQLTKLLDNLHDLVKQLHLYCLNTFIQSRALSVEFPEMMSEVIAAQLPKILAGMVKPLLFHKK
# UniProt P22303, sequence (P22303 whole entry, looked up): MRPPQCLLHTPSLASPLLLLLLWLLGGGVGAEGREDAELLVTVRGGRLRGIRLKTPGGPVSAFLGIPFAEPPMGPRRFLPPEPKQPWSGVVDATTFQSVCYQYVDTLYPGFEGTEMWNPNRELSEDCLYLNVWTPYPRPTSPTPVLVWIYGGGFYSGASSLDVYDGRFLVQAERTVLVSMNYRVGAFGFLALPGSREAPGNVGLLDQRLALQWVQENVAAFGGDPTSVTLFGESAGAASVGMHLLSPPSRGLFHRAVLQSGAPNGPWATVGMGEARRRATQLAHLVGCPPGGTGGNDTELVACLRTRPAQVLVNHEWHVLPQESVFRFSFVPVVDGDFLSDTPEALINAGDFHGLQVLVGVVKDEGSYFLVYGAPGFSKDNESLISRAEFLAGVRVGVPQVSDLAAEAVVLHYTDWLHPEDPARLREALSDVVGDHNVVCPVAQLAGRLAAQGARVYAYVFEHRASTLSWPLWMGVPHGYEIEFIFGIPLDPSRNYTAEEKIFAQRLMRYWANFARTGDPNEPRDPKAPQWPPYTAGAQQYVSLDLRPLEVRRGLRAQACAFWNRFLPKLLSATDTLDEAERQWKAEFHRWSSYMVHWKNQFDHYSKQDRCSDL
smiles,measurement,setting,value
CC(C)(C)NCC(O)c1cc(Cl)c(N)c(C(F)(F)F)c1 (stereo not drawn),Potency,[1],"inconclusive [cytotoxic, partial curve]"
O=P(OCCCl)(OCCCl)OCCCl,Potency,[2],inactive
CNC(=O)O/N=C/C(C)(C)S(C)=O (stereo not drawn),Potency,[3],inactive
same,Potency,[4],active: 572 nM and active: 316 nM
CCOP(=S)(OCC)SCS(=O)(=O)C(C)(C)C,Potency,[5],"inconclusive [cytotoxic, single point]"
same,Potency,[6],"inconclusive [inhibitor, single point]"
same,Potency,[7],inactive
same,Potency,[4],"inconclusive [falling, single point]"
O=c1oc2ccccc2c(O)c1C1CCCc2ccccc21 (stereo not drawn),Potency,[8],inactive
CC(C)c1ccc(NC(=O)N(C)C)cc1,Potency,[9],inactive
O=C(O)CBr,Potency,[9],inactive
same,Potency,[10],inactive
Oc1ccc2c3c1O[C@H]1[C@@H](O)C=C[C@H]4[C@@H](C2)NCC[C@@]341,Potency,[1],"inconclusive [cytotoxic, single point]"
same,Potency,[11],"inconclusive [rising, partial curve, poor fit]"
CCC[CH2][Sn]([Cl])([Cl])[Cl],Potency,[12],"inconclusive [falling, full curve]"
same,"activity change, negative = inhibition",[13],inconclusive: 0.534%
CC[C@]1(O)CC[C@H]2[C@@H]3CCC4=CCCC[C@@H]4[C@H]3CC[C@@]21C,Potency,[12],active: 0.0005 µM [inconclusive]
same,Potency,[14],"inconclusive [falling, full curve]"
same,Potency,[13],inconclusive
same,Potency,[6],"inconclusive [inhibitor, single point]"
same,Potency,[7],"inconclusive [falling, full curve]"
CCOP(=O)(Sc1ccccc1)Sc1ccccc1,Potency,[3],"inconclusive [inhibitor, partial curve, poor fit]"
same,Potency,[9],inconclusive [activator]
same,activation,[2],inconclusive: 14.1%
same,Potency,[7],inactive
same,Potency,[4],active: 17.8 µM
CCNS(=O)(=O)C(F)(F)C(F)(F)C(F)(F)C(F)(F)C(F)(F)C(F)(F)C(F)(F)C(F)(F)F,Potency,[14],inactive
same,Potency,[2],inactive
CC(C)(c1ccc(O)c(-c2ccccc2)c1)c1ccc(O)c(-c2ccccc2)c1,Potency,[10],active: 54.5 µM
same,Potency,[15],"inconclusive [falling, full curve]"
same,Potency,[16],active: 49 µM
same,Potency,[8],"inconclusive [activator, single point]"
same,Potency,[17],"inconclusive [cytotoxic, single point]"
same,Potency,[18],"inconclusive [activator, single point]"
same,Potency,[7],inconclusive [cytotoxic]
Nc1ccc([N+](=O)[O-])cc1Cl,Potency,[17],inactive
Clc1cc(Cl)c(-c2cc(Cl)c(Cl)cc2Cl)cc1Cl,Potency,[2],inactive
CC1CCCCC1NC(=O)Nc1ccccc1 (stereo not drawn),Potency,[6],"inconclusive [inhibitor, single point]"
COc1cc(CC(C)N)c(OC)cc1Br (stereo not drawn),Potency,[19],"inconclusive [cytotoxic, partial curve, poor fit]"
same,Potency,[1],"inconclusive [cytotoxic, single point]"
same,Potency,[6],inactive
CC(C=O)Cc1ccc2c(c1)OCO2 (stereo not drawn),Potency,[2],inactive
same,Potency,[15],inactive
